From the supplement of paper PMC12217912
This is one part of the list. Sequences were assembled here from the parent chain. Values near 0.05 are background.

B1: TEV protease; numbered along this chain (parent)
chain: MGESLFKGPRDYNPISSSICHLTNESDGHTTSLYGIGFGPFIITNKHLFRRNNGTLVVQSLHGVFKVKDTTTLQQHLVDGRDMIIIRMPKDFPPFPQKLKFREPQREERICLVTTNFQTKSMSSMVSDTSCTFPSGDGIFWKHWIQTKDGQCGSPLVSTRDGFIVGIHSASNFTNTNNYFTSVPKNFMELLTNQEAQQWVSGWRLNADSVLWGGHKVFMVKPEEPFQPVKEATQL

Variants of: B1
Test: raw area under fraction-flipped curve 0-4 h after induction (AUC4h, not background-subtracted), DNA-recorder readout of cleavage of the substrate (dimensionless); higher = more cleavage of the substrate by the protease variant
Conditions: temperature: 34 °C; time window: 0-4 h after rhamnose induction
Description: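 In vivo DNA recorder in E. coli TOP10(DE3) ΔrhaA at 34 °C. Each TEVp single-site mutant (parent TEVp 0) is paired with a single-site variant of the 7-mer TEVs (canonical ENLYFQ|S). The substrate sits between flexible linkers in a Bxb1-sfGFP-TEVs-SsrA fusion, so cleavage stabilises Bxb1 and speeds flipping of a recombination array, read by NGS. The value is the raw area under the fraction-flipped curve over 0-4 h after rhamnose induction (AUC4h), with ≥20 reads per time point. It is not background-subtracted; inactive controls average about 0.047.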
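Note: Bxb1 expression induced with 0.2% (w/v) L-rhamnose at OD600 near 0.5, cultures sampled hourly, flipped fraction per protease–substrate barcode pair counted by paired-end Illumina sequencing.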

Variant	area with substrate ENLAFQS	area with substrate ENLCFQS	area with substrate ENLDFQS	area with substrate ENLFFQS	area with substrate ENLHFQS	area with substrate ENLLFQS	area with substrate ENLNFQS	area with substrate ENLPFQS	area with substrate ENLTFQS	area with substrate ENLVFQS	area with substrate ENLWFQS	area with substrate ENLIFQS	area with substrate ENLKFQS	area with substrate ENLEFQS	area with substrate ENLGFQS	area with substrate ENLMFQS	area with substrate ENLQFQS	area with substrate ENLRFQS	area with substrate ENLSFQS
MGESLFKGPRDYNPISSSICHLTNESDGHTTSLYGIGFGPFIITNKHLFRRNNGTLVVQSLHGVFKVKDTTTLQQHLVDGRDMIIIRMPKDFPPFPQKLKFREPQREERICLVTTNFQTKSMSSMVSDTSCTFPSGDGIFWKHDIQTKDGQCGSPLVSTRDGFIVGIHSASNFTNTNNYFTSVPKNFMELLTNQEAQQWVSGWRLNADSVLWGGHKVFMVKPEEPFQPVKEATQL [W144D]	0.0606	0.0629	0.0534	0.0882	0.0799	0.0686	0.0558	0.057	0.068	0.0627	0.0698	–	–	–	–	–	–	–	–
MGESLFKGPRDYNPISSSICHLTNESDGHTTSLYGIGFGPFIITNKHLFRRNNGTLVVQSLHGVFKVKDTTTLQQHLVDGRDMIIIRMPKDFPPFPQKLKFREPQREERICLVTTNFQTKSMSSMVSDTSCTFPSGDGIFWKHFIQTKDGQCGSPLVSTRDGFIVGIHSASNFTNTNNYFTSVPKNFMELLTNQEAQQWVSGWRLNADSVLWGGHKVFMVKPEEPFQPVKEATQL [W144F]	0.0615	0.0622	0.0537	–	0.0487	–	0.0672	–	0.0701	0.0731	0.0659	0.0885	0.0492	–	–	–	–	–	–
MGESLFKGPRDYNPISSSICHLTNESDGHTTSLYGIGFGPFIITNKHLFRRNNGTLVVQSLHGVFKVKDTTTLQQHLVDGRDMIIIRMPKDFPPFPQKLKFREPQREERICLVTTNFQTKSMSSMVSDTSCTFPSGDGIFWKHIIQTKDGQCGSPLVSTRDGFIVGIHSASNFTNTNNYFTSVPKNFMELLTNQEAQQWVSGWRLNADSVLWGGHKVFMVKPEEPFQPVKEATQL [W144I]	0.0683	0.0784	0.0613	0.0564	–	–	–	–	–	–	–	–	0.0686	0.054	0.065	0.063	0.0811	0.0808	–
MGESLFKGPRDYNPISSSICHLTNESDGHTTSLYGIGFGPFIITNKHLFRRNNGTLVVQSLHGVFKVKDTTTLQQHLVDGRDMIIIRMPKDFPPFPQKLKFREPQREERICLVTTNFQTKSMSSMVSDTSCTFPSGDGIFWKHWTQTKDGQCGSPLVSTRDGFIVGIHSASNFTNTNNYFTSVPKNFMELLTNQEAQQWVSGWRLNADSVLWGGHKVFMVKPEEPFQPVKEATQL [I145T]	0.069	0.0707	0.0655	0.0965	0.069	0.0531	0.0678	0.069	0.0597	0.0703	0.0779	–	0.089	0.0681	–	–	0.0621	0.0873	0.0767
MGESLFKGPRDYNPISSSICHLTNESDGHTTSLYGIGFGPFIITNKHLFRRNNGTLVVQSLHGVFKVKDTTTLQQHLVDGRDMIIIRMPKDFPPFPQKLKFREPQREERICLVTTNFQTKSMSSMVSDTSCTFPSGDGIFWKHWIQTKGGQCGSPLVSTRDGFIVGIHSASNFTNTNNYFTSVPKNFMELLTNQEAQQWVSGWRLNADSVLWGGHKVFMVKPEEPFQPVKEATQL [D149G]	0.0625	0.0791	0.0571	0.088	0.0623	–	0.0593	0.0654	–	0.0664	–	0.0858	0.0735	0.0717	0.0592	0.0675	0.075	0.0527	0.0594
MGESLFKGPRDYNPISSSICHLTNESDGHTTSLYGIGFGPFIITNKHLFRRNNGTLVVQSLHGVFKVKDTTTLQQHLVDGRDMIIIRMPKDFPPFPQKLKFREPQREERICLVTTNFQTKSMSSMVSDTSCTFPSGDGIFWKHWIQTKDNQCGSPLVSTRDGFIVGIHSASNFTNTNNYFTSVPKNFMELLTNQEAQQWVSGWRLNADSVLWGGHKVFMVKPEEPFQPVKEATQL [G150N]	0.0516	0.0556	0.0746	0.0683	0.062	–	0.0388	0.0744	–	–	–	0.0564	0.0592	0.0663	–	0.0604	0.0761	0.0713	0.064
MGESLFKGPRDYNPISSSICHLTNESDGHTTSLYGIGFGPFIITNKHLFRRNNGTLVVQSLHGVFKVKDTTTLQQHLVDGRDMIIIRMPKDFPPFPQKLKFREPQREERICLVTTNFQTKSMSSMVSDTSCTFPSGDGIFWKHWIQTKDTQCGSPLVSTRDGFIVGIHSASNFTNTNNYFTSVPKNFMELLTNQEAQQWVSGWRLNADSVLWGGHKVFMVKPEEPFQPVKEATQL [G150T]	0.0692	–	0.0624	0.066	0.0591	0.0573	0.0668	0.061	–	0.0588	0.0615	0.0601	0.106	0.0635	–	–	0.0518	0.0562	0.0487
MGESLFKGPRDYNPISSSICHLTNESDGHTTSLYGIGFGPFIITNKHLFRRNNGTLVVQSLHGVFKVKDTTTLQQHLVDGRDMIIIRMPKDFPPFPQKLKFREPQREERICLVTTNFQTKSMSSMVSDTSCTFPSGDGIFWKHWIQTKDGQRGSPLVSTRDGFIVGIHSASNFTNTNNYFTSVPKNFMELLTNQEAQQWVSGWRLNADSVLWGGHKVFMVKPEEPFQPVKEATQL [C152R]	0.0613	–	–	0.0677	0.051	–	0.0658	0.0673	–	–	0.0719	0.0663	0.0615	0.0597	0.0925	–	0.0619	0.045	0.057
MGESLFKGPRDYNPISSSICHLTNESDGHTTSLYGIGFGPFIITNKHLFRRNNGTLVVQSLHGVFKVKDTTTLQQHLVDGRDMIIIRMPKDFPPFPQKLKFREPQREERICLVTTNFQTKSMSSMVSDTSCTFPSGDGIFWKHWIQTKDGQTGSPLVSTRDGFIVGIHSASNFTNTNNYFTSVPKNFMELLTNQEAQQWVSGWRLNADSVLWGGHKVFMVKPEEPFQPVKEATQL [C152T]	0.0476	0.0589	0.063	0.0614	0.0613	0.0484	0.0678	0.0509	–	–	–	0.0648	0.0552	0.0535	–	–	0.0525	–	–
